{"source": "the RNAGym collection of RNA variant scans (doi:10.7554/elife.90254)", "parents": {"B1": {"name": "LINE1-mini (parent)", "chain": "GGCAGAGCUCAACACAGCGUGGCAAAGUGGCUGUGGCUAGACUGCC"}}, "note": "The source gives no read counts; variants with many changes may rest on few reads.", "data": [{"variants_of": "B1", "assay": "self-cleavage, relative activity (ratio to wild type); higher = more cleavage; in vitro, sequencing; the parent is a self-cleaving ribozyme", "values": [{"variant": "GGCAGAGCGCAACACAGAGUGGCAUAGUGGCUAUGGCUAGACUGCC", "self-cleavage": 0.12}, {"variant": "GGCAGAGCUCAACACAGCAUAGCGAAGUGGCUGUGGCUAGACUGCC", "self-cleavage": 1.77}, {"variant": "GGCAGGGCUCAAUACAGCGUGGCAAAGUGGCUGCGGCUAGACUGCC", "self-cleavage": 0.04}, {"variant": "GGCAGAGCUCAACAGAGCUUGGCAAAGUGGCUGUGGCUAGACUGCU", "self-cleavage": 0}, {"variant": "UGCAGAGCUCAACAGAGCGUGGCAAAGUGGCGGUGGCUAGACUGCC", "self-cleavage": 0.03}, {"variant": "GGCAGAGCUCAACACAGCGUGGCAAUGUGGCUGUGGUUAGACUUAC", "self-cleavage": 0.02}, {"variant": "GGUAGAGCUCAACACAGCGUGGUAAAGUGGCUGUUGCUAGACUGCC", "self-cleavage": 0.51}, {"variant": "GGCAGAGCUCAACACAGCGUGGCCAAGUGGCUGUGGCUAGCGUGAC", "self-cleavage": 0.09}, {"variant": "GGCAGAGCCCAUCACAGCGUGGCAAAGUAGCUGUGGCUAGACUGCC", "self-cleavage": 0.01}, {"variant": "GUCAGAGCUCAACGCCGCGUGGCAAAGUGGCUGUGGCUAGACUGCC", "self-cleavage": 0.01}, {"variant": "GGCAGAGCUCAACACGGCGUGUCAAAGUGGAUGUGGCUAGACUGCC", "self-cleavage": 0.02}, {"variant": "GGCAGAGGACAACACAGGGUAGCAAAGUGGCUGUGGCUAGACUGCC", "self-cleavage": 0.12}, {"variant": "GGCAGAGUUCAACACAUCGUGGCAAAGUGGCAGUGGCUAGACUGCC", "self-cleavage": 0.1}, {"variant": "GGCACGGCUCACCACAGCGUGGCAAAGUGGCUGUGGCUAGACUGCC", "self-cleavage": 0.03}, {"variant": "GGCAGCGCUCAACACAGCGUAGCAAAGUGGCGGUGGCUAGACUGCC", "self-cleavage": 0}, {"variant": "GGCAGAGCGCAACACCGCGUGGCAAAGUGGCUGUUGCUAGUCUGCC", "self-cleavage": 0.02}, {"variant": "GGCAGAGAUCAACACAUCGUAUCAAAGUGGCUGUGGCUAGACUGCC", "self-cleavage": 0.17}, {"variant": "GACAGAGCGCACCACAGCGUGGCAGAGUGGAUGUGGCUAGACUGCC", "self-cleavage": 0}, {"variant": "GGCUAAGCUCAACACAGCGUGGCAAAGUGGCUGUGGCUAGCCAGCC", "self-cleavage": 0.4}, {"variant": "CGCAGAGAUCAACACCGCGUGGCAAAGUGGCUGUGGCUAGACUGCC", "self-cleavage": 0.04}, {"variant": "GGCAGAGCUCAACACCGCGUGGGACAGUCGCAGUGGCUAGCCUGCC", "self-cleavage": 0.05}, {"variant": "GGCAGAGCUCAACAUAGCGUUGCAAAGUGGCUGUGUCUAGACUGAC", "self-cleavage": 0.02}, {"variant": "GGCCGAGCUCAACCCAGCGAGGCAAAGUGGCUGUGGCUAGACGGCU", "self-cleavage": 0.55}, {"variant": "GCGAGAGCUCAACACAGCUUGGCAAAGUGGCUGUGGCUAGACUGCC", "self-cleavage": 0.15}, {"variant": "GGCAGAGCUCAACACACCGAGGCAAAGUGGCUGUGGAUAGACUGCC", "self-cleavage": 0.04}, {"variant": "GGCAGAGCUCAACACAGCCUGGCAAUGUGGCUGUGGCUAGACGGCC", "self-cleavage": 0.03}, {"variant": "GGCAGAGCUCAAUACAGCGUGGCCAAGUCGCUGUGGCUAGACUGCC", "self-cleavage": 0.06}, {"variant": "GGCAGAGCGCGACACAGCGUGGCAAAGUGGCUGUGGCUAUACAGCC", "self-cleavage": 0}, {"variant": "GGCAGAGCUCAACACAGCGUGGCAAAUUGGCUGGGGAUAGACUGCC", "self-cleavage": 0.04}, {"variant": "GGCAGAGCGCAACACAGCGUGGCAAAGUAGCUGUGGCUACACUGCC", "self-cleavage": 0.05}, {"variant": "AGCAGAGCUCAACACAGCAUGGCACAGUGGCUGUGACUAGACUGCC", "self-cleavage": 0.08}, {"variant": "CGCAGAGCUCAACACAGCGUGUAAAAGUGGCUGUGGCUAGACUGCC", "self-cleavage": 0.2}, {"variant": "GGCCGAGCUCAUCAAAGCGUGGCAAAGGGGCUGUGGCUAGACUGCC", "self-cleavage": 0.02}, {"variant": "GGCAGAGCUGAACAAAGCGUGUUGAUGUUGCUGUGGCUAGACUGCC", "self-cleavage": 0.03}, {"variant": "GGCAGAGCUCAACGCAGCGUGGCAAACUGUGAGUGGCUAAACUGCC", "self-cleavage": 0.03}, {"variant": "AGCAGCACUCAACACAGCGUGUCAAAGUGGCUGAGGCUAGACUUCC", "self-cleavage": 0.07}, {"variant": "GGCAGAGCUCAACACAGCGGGGCAAAGUGCGUGUGGCUAGACUGCC", "self-cleavage": 0.09}, {"variant": "GGCAGAGCUCAACCCCGCGUGGCAAAGUGGCAGUGGCUAUACUGCC", "self-cleavage": 0.01}, {"variant": "GGCAGAGCUCAACACAGCGUGUCAAACCGGCUGUAGCUAGAAUGCC", "self-cleavage": 0.02}, {"variant": "GGUCGAGCUCAACACAGCGUGGCAAAGUGGCGGUGGCUAGACUGCC", "self-cleavage": 0.05}, {"variant": "GGCACAGCCUAACAAAGAGUGUCAAAGCGGCUGUGGCUAGACUGCC", "self-cleavage": 0.01}, {"variant": "GGCAGAUAUCUACAUAGCGUGGCAAAGUGGCUGUGGCUAGACUGCC", "self-cleavage": 0.01}, {"variant": "GGCCGACCUCUACACAGCGUGGCAAAGUGGCUCUGGCUAGACUGCC", "self-cleavage": 0.03}, {"variant": "GGCAGAACUCAAUACAGCGUUGGUAAGUGGUUGUGGCUAGACUGCC", "self-cleavage": 0.03}, {"variant": "GGCAGAGCUCAAAACCGCGUGGCAAAGUGGAUGUGGCUAGACUGCC", "self-cleavage": 0.03}, {"variant": "GGCAGAGCUCAACACAGCGAGGCAAAGUCGCUGUGGCUAGAUUGCC", "self-cleavage": 0.19}, {"variant": "GGCAGAUCUCAACAAAGCGUGGUAGAGUGGCUGUGAGUGGACUGCC", "self-cleavage": 0.03}, {"variant": "UGCAGAGCUCAAUACAGCGUGGCAAAGUGGCUGUGGCUAUACUUCC", "self-cleavage": 0.16}, {"variant": "GGCACAGCUCAACACAGCGUGGCAAAGUGGCUGUGACUAGACUGGC", "self-cleavage": 0.01}, {"variant": "GGCCGAGCUCAACAAAGCGUGGCAUAGUGGCUGUGGCUAGACGGUC", "self-cleavage": 0.01}, {"variant": "GGCAGAGCUCAGCCCAGCGUGGCAAAGUGGCUGUGGCUAUACUUCC", "self-cleavage": 0.01}, {"variant": "GGCAGAGCUCAACGCAGCGUGGCAAAGUGGCUGUGGAUACACUGCC", "self-cleavage": 0.24}, {"variant": "GGCAGAGCUCAACAUACCGUGGCAAAGUGGCUGUGGCGAGACUGCC", "self-cleavage": 0.02}, {"variant": "GGCAGAGCUCAACACAUGGUGGCAAAUUGGCUGUGGCUAGACCGCC", "self-cleavage": 0.04}, {"variant": "GGCAAAGCUCAUCACAGCGUCGCAGAGUGGCUGUGGCUAGACUGCC", "self-cleavage": 0.12}, {"variant": "AGCGGAGCUCAACACAGCGUGGCAAAGUGGCUGUGGCUAGUCUGCC", "self-cleavage": 0.05}]}]}
